Patent publication US20100203084A1, “METHOD FOR TREATING PAIN OR OPIOID DEPENDENCE USING A SPECIFIC TYPE OF NON-OPIOID AGENT IN COMBINATION WITH A SELECTIVE EXCITATORY-OPIOID-RECEPTOR INACTIVATOR” (priority 2006, published 2010)

Tested on: chronic morphine-dependent mice
Assay: naloxone-precipitated withdrawal hyperalgesia in chronic morphine-dependent mice (tail-flick)
Conditions: NLX 10 μg/kg on Day 6 after morphine 10 mg/kg b.i.d. for 5 days, FIG. 9

C=CCN1CC[C@]23c4c5ccc(O)c4O[C@H]2C(=O)CC[C@@]3(O)[C@H]1C5 [naloxone] was tested, and the “effect on tail-flick latencies, acute naloxone in chronic morphine-dependent mice” value was “evokes long-lasting hyperalgesia”.
